# ± gives the standard deviation of the averaged measurements. Some of the results follow.
# System: PfAP2-EXP AP2 domain (GST-tagged)
# Test: gcPBM binding intensity (ln(normalized median fluorescence intensity)); higher = stronger DNA binding
# Method in brief: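 Binding of GST-tagged P. falciparum DNA-binding domains, expressed in E. coli and used at about 25 μg on average, was carried out for 1 h in 1× PBS containing 1% milk, 0.2 mg/ml BSA, 0.5% salmon testes DNA and 0.03% Triton X-100. The target was an Agilent 4 × 180k array of primer-extended double-stranded 36-bp intergenic genomic probes plus negative controls, read with Alexa488 anti-GST antibody at 488 nm. Binding intensity is the highest Masliner-normalised natural-log median intensity across replicate spots of either probe orientation.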
row,Sequence,gcPBM binding intensity (ln)
1,AAGAGGATACACAATGTGCACTTTTTTTTTTTTTTT [GTGCAC_site9415],8.78 ± 0.23
2,TATACAGATATATATACACACATATATATAAATACA [CACACA_site4383],8.44 ± 0.3
3,ATAAATAAAACAAATAGTACAATATAAAAAAAAAGG [XGTACX_site87],8.86 ± 0.3
4,AAAAAAAAAAAAAACACACACACACGCATACACATA [CACACA_site7364],8.71 ± 0.61
5,AATGAGCTTTTTAAAAGTACTAAATATAAATAAATA [XGTACX_site3632],8.46 ± 0.3
6,TATATATGTATATTTTGTACGTATTTATTTACATGA [XGTACX_site4584],8.41 ± 0.29
7,TATTACTTAAATAAAAGTACATATAACATTTTAGTT [XGTACX_site196],8.16 ± 0.33
8,AATAGTTGCTAAAGGTGTACAATACATTTATTAGAA [XGTACX_site2773],8.71 ± 0.25
9,TGTATAGTCTAAAGTTGTACAAAAAAAAAAAAAAAA [XGTACX_site5764],8.39 ± 0.41
10,TCTTTGGTATTTACATGTACATATTCTTAAAAACAT [XGTACX_site3124],9.04 ± 0.26
11,GAAAATAAAATATTAGTGCATTATTTGATCAATAAT,8.64 ± 0.13
12,AATTATAAATCTTGCACACAAAAAAAATAATAAAAA [CACACA_site2434],8.36 ± 0.43
13,TAATAAATAATGGTTACACACAAAATATAAAACTTA [CACACA_site3544],8.36 ± 0.39
14,TAAACACATATATAGACATGCAACTAGTTTTTATAA [TGCATGCA_site474],8.68 ± 0.57
15,AAATCTTTGTGTGGATGTACTTTTATAAAAAAGAAT [XGTACX_site3830],8.53 ± 0.36
16,TCTGTTCTTTTTTAATGTACAAGAAATATAAAATTC [XGTACX_site3600],8.38 ± 0.38
17,AATTTTTAGTATATAACATAAAATAAAATAAAATAA [GTGCAC_negctrl_site696],8.47 ± 0.38
18,TTATTTTTTTTTTTTTGTACACAATTTGACACATTA [XGTACX_site7983],8.59 ± 0.57
19,TTTATTTAATTATGTTGTACATGTAGGATTTATTTT [XGTACX_site7078],8.68 ± 0.42
20,TAAAAAGTTATATTCACACACATACACATATAAATA [CACACA_site6398],8.45 ± 0.56
21,AAAAAGGAAATAATAACACACATTAATAATTATAAA [CACACA_site3401],8.58 ± 0.44
22,GTTAAAAAAAGGAGAGATCTCACACAAATATATATA [GTGCAC_negctrl_site117],8.74 ± 0.55
23,GGGTGCCAAATTAGCACACACATATATACCTGAATT [CACACA_site5551],8.7 ± 0.28

row,Sequence,gcPBM binding intensity (ln)
1,ATGATAAATATAAGTTGTACATATATCTATGTGCAT [XGTACX_site6010],8.34 ± 0.27
2,CATAAATACTATATATGTACGTAATTTTTAAAACAT [XGTACX_site7710],8.72 ± 0.35
3,CATTTAATAATAACAAGTACACAAAGATGTATAACA [XGTACX_site8315],8.38 ± 0.2
4,AATATATATGAAAAAAGTACTCAAGGAATAAAAAAA [XGTACX_site7720],8.92 ± 0.38
5,TATATATATATATATGTGCGCATTACTTTAAGAATA,10.1 ± 0.35
6,TTACAAATAATTTGTTGTACGCTTTTTTTCTTTTTT [XGTACX_site7199],8.71 ± 0.4
7,TATAATATTCTATATGCATGTACACCATTCTTTATT [TGCATGCA_site688],9.19 ± 0.4
8,ACAATATCTAGATACACACACATATCTCTCAATCTA [CACACA_site656],8.66 ± 0.36
9,TTTTTTTTTATTTGTTGTACGAGGTTTTAAAATTTT [XGTACX_site106],8.79 ± 0.49
10,TAATAAAACATATATACACACATTATATATACATAT [CACACA_site8495],8.35 ± 0.35
11,AAAAAGGTTATTGGTACACACATATGTATATAAATA [CACACA_site6402],8.71 ± 0.46
12,TATTGTTATCTTTTATGTACTTAAAAAAATAAATTT [XGTACX_site4233],8.54 ± 0.2
13,GTAGGCATTAAAAAATGTACAAAATATTATGAATTG [XGTACX_site1615],8.49 ± 0.45
14,GTATGAAATTATAATAGTACATATAAATAAAAAAAA [XGTACX_site8955],8.66 ± 0.39
15,TGTATTATATGTAAATGTACATTTAATATTTTATAT [XGTACX_site4461],8.54 ± 0.33
16,TATATATAATATATATATATGGAAATTCTTTTAAAT [XGTACX_negctrl_site50],8.24 ± 0.3
17,ATATAAGGATAACCTAGTACATATTATATGAAACAA [XGTACX_site8459],8.62 ± 0.3
18,AAGGGGAAAAAAAAAAGTACACAAACATAGGATAAT [XGTACX_site377],9.29 ± 0.46
19,CAATTAAAATGCAACGGTACACATAAAAAAAATAAA [XGTACX_site6216],8.95 ± 0.3
20,AAAATAAATAAATAAATATATATATATATATATATA [TGCATGCA_negctrl_site558],9.99 ± 0.4
21,TACGGTAAATAGTGTTGTACGATACAATTGTTTTCT [XGTACX_site8118],8.43 ± 0.39
22,CCACAAGTATATAGTAGTACAATTTTTTTCTCTTTA [XGTACX_site4403],8.45 ± 0.41
23,TTTATGTGTTATAAATGTACATAATATAATTCGTAT [XGTACX_site3845],8.56 ± 0.35

row,Sequence,gcPBM binding intensity (ln)
1,TTTTTTTTATTTTGTTGTACGCTTATTTGTATATAT [XGTACX_site7325],8.95 ± 0.45
2,TTATCTATAAATACGAGTACGCAAAATCATATAATA [XGTACX_site2447],8.9 ± 0.47
3,TTTTTATAAAATTTTATGAGCTCGGAAAAAATAAAC [GTGCAC_negctrl_site637],8.97 ± 0.37
4,TAATTATTTGCCCTTACTCTGAACATTCGGAATTTA [CACACA_negctrl_site1278],8.56 ± 0.4
5,ATTTACGCGCTTATTACACACACATACAAATAAGGA [CACACA_site9157],8.81 ± 0.43
6,TTTTAATATTAAGATGTCTTTTACGTTTATTTTGTA [CACACA_negctrl_site765],8.57 ± 0.55
7,TTCTTTTTAAATTACACACACATATAAATATGTATA [CACACA_site7618],8.66 ± 0.21
8,ATCTGCATATATATATGTACATATTTTAGAATGCAC [XGTACX_site708],8.77 ± 0.26
9,GGATAAAATGCTACGAGTACATAAGCATTTTTCCCT [XGTACX_site7796],8.73 ± 0.35
10,TATAAACATATAAAAAGTACATACCAATTAATATTA [XGTACX_site967],8.44 ± 0.4
11,TATTCTGTGTATAAAAGTACAAATATTTAAATGTAT [XGTACX_site8234],8.65 ± 0.26
12,AATATATTCATCATATCAATATTGTCAAGCAAACGA [TGCATGCA_negctrl_site37],8.62 ± 0.54
13,TCTTTTAAAAATATAAAAAGGAATATATAAAAATGT [CACACA_negctrl_site332],8.67 ± 0.4
14,GAATTTATTTTATTTTCACACACAAAAATAAATATC [CACACA_site8762],8.51 ± 0.35
15,AATAAATAGATATATACACACATATATGTGTACATA [CACACA_site7476],8.37 ± 0.29
16,TTATCCATTTTAATCACACATACTTTACTTTGGAAC [CACACA_site5584],8.54 ± 0.41
17,TTCTTTAATAAAATAATCTCAAAGAAAATTTTTTCT [GTGCAC_negctrl_site589],7.93 ± 0.36
18,ATATTATTATAAACTTCACACATTTTATGGGTTTTT [CACACA_site4631],8.38 ± 0.32
19,TACAATTTAAAACACACACACAATAATACATATATA [CACACA_site1251],8.8 ± 0.5
20,TATATTATTTATATTTGTACACAGCGATATGAAATA [XGTACX_site987],8.65 ± 0.47
21,CATAAGCACAAGCACAAGCACACATTTATATATATA [CACACA_site882],9.14 ± 0.057
22,CGCATATTTTATGTTTGTACTCATATGAATATCATA [XGTACX_site4717],8.71 ± 0.38
23,TTGTATATATTAAATTGTACTTATTTTTTGTATATA [XGTACX_site3251],8.29 ± 0.28

row,Sequence,gcPBM binding intensity (ln)
1,TATAAATAAATGCGTACACACTAATAAAAAAAAAAA [CACACA_site4630],8.52 ± 0.44
2,ATAAAAATAAAAAGATGTACGTATTTTTTTTTTTTT [XGTACX_site5329],8.54 ± 0.071
3,GAAATAGAGAAACACACACACATATATTTATGTATT [CACACA_site3967],8.4 ± 0.43
4,CATTATTATGATAGTTGTACAATTTTTATAAAAAAT [XGTACX_site4411],8.62 ± 0.35
5,TGGAAAAATAGGCACACACACATATATACCTATATA [CACACA_site4843],8.39 ± 0.31
6,TTTTTTTTTTTTGAGTGTACTAAAATATTACCTTTT [XGTACX_site646],8.37 ± 0.5
7,TGAATATTTACTTTAGCACACAATTTGTATTTGATT [CACACA_site960],8.59 ± 0.44
8,AATATTATAAATGATACACACTTAAAATACACCCAC [CACACA_site5498],9.12 ± 0.46
9,AATATATTTTAATACACACACACATATATATATATA [CACACA_site5969],10.3 ± 0.34
10,ATATGTATATAAATGTGTACTTATAAATATATATAT [XGTACX_site3250],9.25 ± 0.028
11,TTTTTTTTAAATATCACACACATATAACATATTCTA [CACACA_site7687],8.33 ± 0.4
12,ATTTTTCATATATATATATTAATATATATATATTAA [CACACA_negctrl_site1681],8.65 ± 0.11
13,GTATTTTTAAATGACACACACATATATATATATATA [CACACA_site1662],10.2 ± 0.5
14,TTTGAACGAAAATACTCACACATATTTATAAACATT [CACACA_site5182],8.34 ± 0.49
15,TGAATATTTATACATGCACACTAAAATAAAGAATCT [CACACA_site5351],8.88 ± 0.18
16,AAAAATATATTATATGTACACACAAAATTAAGGGAT [CACACA_site8384],9.04 ± 0.35
17,AAAATTTCTTTTTTTTGTACATATATAATAATATAT [XGTACX_site7107],8.38 ± 0.29
18,CAGTTAATGTTGGTACTTTATATAAAAATGATATGA [CACACA_negctrl_site1600],8.52 ± 0.35
19,ATAACAACATTTGATAAACACACAGAAGTATAAATA [CACACA_site8739],8.8 ± 0.24
20,TCTTTCTCTCTTCAAAGTACATATAATATATACTTC [XGTACX_site7982],8.72 ± 0.24

# From the supplement of paper PMC11417369
